The list shows a part of the results. Viral Rep nickase domains cut single-stranded DNA in vitro (3 µM enzyme, 1 h, 37 °C); shown is the middle of each 90-letter strand. Numbers give uncut DNA relative to the enzyme-free pool, as log2; more negative means more cut, near 0 not cut, and no call is made. Counts are relative to all reads, so uncut sequences can rise above 0 when many others are cut.
Tests used:
Assay in all cases: uncleaved DNA left, log2 of reads against the no-enzyme library (log2 ratio); higher = less cleavage (more negative = more Rep cleavage of the k-mer); sequences stand for … in CTCGTCCG…ACCGGAGA
[1] = system: T1, Rep nickase domain of Muscovy duck circovirus
T1 sequence (protein, residues 1-111, tag omitted): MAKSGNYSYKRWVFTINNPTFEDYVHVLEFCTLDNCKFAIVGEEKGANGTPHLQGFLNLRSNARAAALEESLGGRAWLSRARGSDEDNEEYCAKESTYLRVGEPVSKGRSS
Method: (§1)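 A pool of 90-nt single-stranded DNAs with seven random bases just before the constant AC of the nick site (name = the seven bases) was cut by 3 µM recombinant His6-SUMO-tagged Rep nickase domain (300 nM DNA, 50 mM HEPES pH 8.0, 50 mM NaCl, 1 mM MnCl2, 1 h, 37 °C, three replicates). Uncut DNA was amplified and sequenced.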

[2] = system: T2, Rep nickase domain of banana bunchy top virus
T2 sequence (protein, residues 1-94, tag omitted): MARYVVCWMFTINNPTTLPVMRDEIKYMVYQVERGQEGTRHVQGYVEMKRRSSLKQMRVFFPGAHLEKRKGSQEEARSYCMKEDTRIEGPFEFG
Method: as §1

[3] = system: T3, Rep nickase domain of cabbage leaf curl virus
T3 sequence (protein, residues 1-116, tag omitted): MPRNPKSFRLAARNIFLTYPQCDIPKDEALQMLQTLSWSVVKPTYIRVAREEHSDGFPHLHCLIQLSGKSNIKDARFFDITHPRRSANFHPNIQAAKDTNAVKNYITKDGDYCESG
Method: as §1

[4] = system: T4, Rep nickase domain of chickpea chlorotic dwarf virus
T4 sequence (protein, residues 1-124, tag omitted): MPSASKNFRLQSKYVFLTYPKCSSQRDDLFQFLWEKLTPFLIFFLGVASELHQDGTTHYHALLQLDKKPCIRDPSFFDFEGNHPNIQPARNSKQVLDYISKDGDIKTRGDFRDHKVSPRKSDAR
Method: as §1

[5] = system: T5, Rep nickase domain of faba bean necrotic yellows virus
T5 sequence (protein, residues 1-98, tag omitted): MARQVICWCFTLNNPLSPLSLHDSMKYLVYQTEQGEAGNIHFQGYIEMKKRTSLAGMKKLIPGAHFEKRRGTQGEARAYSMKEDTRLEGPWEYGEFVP
Method: as §1

[6] = system: T6, Rep nickase domain of maize striate mosaic virus
T6 sequence (protein, residues 1-117, tag omitted): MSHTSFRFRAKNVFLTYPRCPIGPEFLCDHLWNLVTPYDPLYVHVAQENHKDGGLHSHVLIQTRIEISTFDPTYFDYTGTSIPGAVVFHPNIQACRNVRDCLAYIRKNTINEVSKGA
Method: as §1

[7] = system: T7, Rep nickase domain of porcine circovirus 2
T7 sequence (protein, residues 2-116, tag omitted): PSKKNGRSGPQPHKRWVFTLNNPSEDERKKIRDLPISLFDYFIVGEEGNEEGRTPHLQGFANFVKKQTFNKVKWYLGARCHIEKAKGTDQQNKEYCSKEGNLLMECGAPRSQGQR
Method: as §1

[8] = system: T8, Rep nickase domain of tomato golden mosaic virus
T8 sequence (protein, residues 1-124, tag omitted): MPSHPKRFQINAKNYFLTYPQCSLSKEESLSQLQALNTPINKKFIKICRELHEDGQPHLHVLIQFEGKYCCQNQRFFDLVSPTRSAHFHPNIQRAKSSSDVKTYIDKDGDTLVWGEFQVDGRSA
Method: as §1

[9] = system: T9, Rep nickase domain of tomato yellow leaf curl virus
T9 sequence (protein, residues 1-136, tag omitted): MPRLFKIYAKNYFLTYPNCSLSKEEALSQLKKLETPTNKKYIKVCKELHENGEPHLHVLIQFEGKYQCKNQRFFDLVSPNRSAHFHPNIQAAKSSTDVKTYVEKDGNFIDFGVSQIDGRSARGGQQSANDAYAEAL
Method: as §1

[10] = system: T10, Rep nickase domain of wheat dwarf virus
T10 sequence (protein, residues 1-137, tag omitted): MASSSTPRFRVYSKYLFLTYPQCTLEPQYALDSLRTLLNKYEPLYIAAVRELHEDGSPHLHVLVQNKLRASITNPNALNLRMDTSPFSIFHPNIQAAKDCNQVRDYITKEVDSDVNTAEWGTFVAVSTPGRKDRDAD
Method: as §1

| Sequence | uncleaved DNA left (log2) [1] | uncleaved DNA left (log2) [2] | uncleaved DNA left (log2) [3] | uncleaved DNA left (log2) [4] | uncleaved DNA left (log2) [5] | uncleaved DNA left (log2) [6] | uncleaved DNA left (log2) [7] | uncleaved DNA left (log2) [8] | uncleaved DNA left (log2) [9] | uncleaved DNA left (log2) [10] |
| --- | --- | --- | --- | --- | --- | --- | --- | --- | --- | --- |
| ACGAGCA | -0.0358 | 0.058 | -0.358 | -0.486 | -0.113 | -0.995 | -2.37 | 0.0324 | 0.0451 | -0.0532 |
| AAGCTTG | 0.0852 | 0.172 | 0.398 | 1.41 | 0.105 | 1.49 | 0.283 | 0.151 | -0.0587 | 0.189 |
| ATCGTCC | 0.0875 | 0.0397 | -0.0915 | -0.256 | 0.0396 | -0.385 | -0.023 | -0.0116 | -0.129 | -0.0462 |
| TCTTTCA | -0.117 | 0.0444 | 0.189 | -0.971 | 0.00152 | -0.261 | -0.188 | 0.0166 | 0.0171 | 0.121 |
| TCTATCC | -0.0684 | -0.0805 | 0.151 | -0.113 | 0.0176 | -0.212 | 0.0357 | -0.0735 | 0.00929 | 0.013 |
| AGTCTTA | -0.0786 | 0.047 | 0.155 | -0.516 | -0.142 | -0.00623 | -2.01 | 0.112 | 0.11 | 0.0527 |
| AGGCGAG | -0.0722 | 0.0734 | -0.0579 | 0.331 | -0.0214 | -0.371 | 0.0271 | 0.0158 | 0.0782 | 0.0298 |
| GGCATGT | 0.0315 | 0.0239 | 0.518 | 1.35 | 0.0306 | 1.97 | 0.0912 | -0.0133 | 0.0709 | 0.0941 |
| GTTGAGG | 0.15 | 0.189 | 0.604 | 1.29 | 0.0932 | 1.34 | 0.192 | 0.102 | -0.0182 | 0.121 |
| TTCAACC | -0.27 | 0.0115 | 0.107 | -1.45 | -0.118 | -0.165 | -1.12 | 0.03 | 0.0416 | 0.023 |
| CCCCGTG | 0.0439 | 0.0431 | -0.752 | -0.576 | 0.0197 | -0.869 | -0.0587 | -0.0253 | -0.0216 | -0.158 |
| CATGGGG | 0.00927 | -0.0412 | -0.443 | -0.424 | 0.0714 | -0.825 | 0.117 | 0.176 | -0.0618 | -0.0609 |
| AGTAGGC | -0.0887 | -0.187 | 0.0738 | 0.201 | -0.0657 | -0.673 | 0.0389 | -0.00902 | -0.12 | -0.115 |
| CGGCAGC | 0.0318 | -0.0175 | 0.192 | 0.741 | 0.0924 | 0.678 | 0.00586 | 0.00707 | -0.0193 | -0.0488 |
| ATACTCA | 0.0863 | 0.0749 | -0.0895 | -1.53 | 0.0322 | -0.503 | -0.0242 | 0.0865 | 0.0696 | 0.0964 |
| CTTCTAA | -0.0094 | 0.0454 | -0.0621 | -0.544 | 0.132 | -0.553 | 0.0534 | -0.0274 | 0.0759 | 0.144 |

| Sequence | uncleaved DNA left (log2) [1] | uncleaved DNA left (log2) [2] | uncleaved DNA left (log2) [3] | uncleaved DNA left (log2) [4] | uncleaved DNA left (log2) [5] | uncleaved DNA left (log2) [6] | uncleaved DNA left (log2) [7] | uncleaved DNA left (log2) [8] | uncleaved DNA left (log2) [9] | uncleaved DNA left (log2) [10] |
| --- | --- | --- | --- | --- | --- | --- | --- | --- | --- | --- |
| TCGTCCG | -0.00704 | -0.0324 | -0.055 | 0.528 | -0.0436 | 0.769 | 0.00531 | -0.0362 | 0.0538 | -0.071 |
| GGCATTG | 0.0408 | 0.0417 | 0.0668 | 0.711 | -0.0533 | 1.01 | 0.0471 | -0.00531 | 0.0616 | -0.0122 |
| TCTCTAC | 0.151 | -0.193 | 0.022 | -1.85 | 0.0273 | -0.37 | -0.00199 | -0.0321 | 0.00472 | -0.0526 |
| TATTGGA | -1.35 | -0.131 | -0.236 | -0.661 | 0.108 | -1.08 | -0.787 | 0.0582 | -0.0671 | 0.037 |
| TAATAAC | -0.0117 | -0.0259 | -3.16 | -3.01 | 0.00782 | -2.76 | 0.0696 | -2.45 | 0.0064 | -2.73 |
| TACGTTT | -0.111 | -0.291 | -2.66 | -2.77 | -0.105 | -0.524 | -1.72 | -0.492 | -0.0849 | -0.609 |
| GCGTGCA | -0.123 | -0.121 | -0.175 | -0.175 | -0.0568 | -0.578 | -0.389 | -0.106 | -0.0652 | -0.115 |
| CTACGAC | 0.0291 | -0.0395 | 0.0445 | -1.08 | 0.0433 | -0.497 | 0.106 | -0.018 | -0.0585 | -0.0911 |
| ACGAGCG | -0.222 | -0.0143 | -0.878 | -0.396 | -0.119 | -1.09 | -0.0375 | -0.129 | -0.0588 | -0.104 |
| TCTTAGC | 0.158 | 0.00866 | -0.279 | -0.448 | -0.00808 | -1.22 | 0.0164 | -0.0699 | 0.00839 | -0.0611 |
| TACCGGC | 0.246 | 0.141 | 0.204 | 0.0926 | 0.261 | -0.335 | 0.0996 | 0.16 | 0.185 | 0.0756 |
| ACCAAAT | -0.139 | -0.153 | -0.17 | -0.712 | -0.143 | -0.734 | -0.0845 | -0.0776 | -0.244 | -0.141 |
| TTGAAGC | 0.0879 | 0.0707 | -0.224 | -0.54 | -0.0127 | -1.08 | 0.23 | -0.0696 | 0.0835 | -0.0226 |
| AGGTGAC | -0.0209 | -0.0356 | 0.456 | 1.33 | 0.00855 | 1.25 | 0.154 | -0.0497 | 0.0346 | 0.0513 |
| GTCTAGG | 0.153 | 0.139 | 0.467 | 1.09 | 0.0526 | 1.8 | 0.104 | 0.122 | 0.0637 | 0.146 |
